Results taken from the supplement of paper PMC11417369.
The other results are listed elsewhere or left out.

test system: PfHDP1 homeodomain (GST-tagged); assay: gcPBM binding intensity (ln(normalized median fluorescence intensity)); higher = stronger DNA binding
Method in brief: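 For binding intensity, the highest Masliner-normalised natural-log median intensity across replicate spots of either probe orientation was taken. Protein bound to the array was stained with Alexa488 anti-GST antibody and scanned at 488 nm. The protein, GST-tagged P. falciparum DNA-binding domains from E. coli at about 25 μg on average, had been applied for 1 h to an Agilent 4 × 180k array of primer-extended double-stranded 36-bp intergenic genomic probes and negative controls.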

Sequence | gcPBM binding intensity (ln)
AAAAAATACATCAAAAGAAACATATATATATATATA [GTGCAC_negctrl_site719] | 9.33
TTTTTTTTTTAGTATGAACACACATATATATTATAA [CACACA_site8957] | 6.49
TATAAAATAAATAACAAAAAAAATAAAATAAAAATA [TGCATGCA_negctrl_site297] | 6.49
ATAAAACTTATTTAACGTACATATTTTATATACCTT [XGTACX_site5353] | 6.41
TATAATAGTTCATAGGTGCAATATAATAAATTTATA [GTGCAC_site9573] | 9.52
AAAAAAAAAAAAAAAAGTACATGAAAAAAAGAAGAA [XGTACX_site8384] | 6.68
TATCATATATTATAGCGTACTTATTTATTTATTTAT [XGTACX_site1676] | 6.78
ATATAAGTACCTATAACACACATATATTATAAGTAT [CACACA_site7281] | 6.46
TAGAATAAATTAATTACACACGGAATTATATATATA [CACACA_site1616] | 7.23
ATAAATTAAAAACACACACACATCTGGATACCCCTA [CACACA_site5780] | 6.8
TTTTTATAAAAAATTTACACTATATGACAGAAGTAA [XGTACX_negctrl_site481] | 6.33
TGTGTAAAAATCATGGGTACACATTTTGATACCAAT [XGTACX_site1779] | 6.51
AATGAAAAGTAAAATACACACACATAATATAATTTA [CACACA_site8608] | 6.75
AAACTTGACGAACACACACACACATATATAAAAAAA [CACACA_site6494] | 6.85
AAGAAGAAACAAAACACACACAGTCTTCTTTTCTAT [CACACA_site3088] | 6.89
GTATATGAATAATATTTTATGGTAATTTTTTTTTTT [XGTACX_negctrl_site512] | 6.06
TACAGAATTGTATATAGTACATAAAACAATATATAT [XGTACX_site7275] | 6.71
AAAAAAAAAAAAAAGAGTACTCATATAAAAATATAA [XGTACX_site6551] | 6.2
GGTGGTAAAAAACCTGCATGTCGAAATATTAAATAC [TGCATGCA_site33] | 6.71
ATTTCTTTTTTTTTTTTTTTTAATGTAAAACATTTT [CACACA_negctrl_site1462] | 6.38
TTTTCTTTTTGTTCGTGTACACACATGAAATTTATA [XGTACX_site3301] | 6.84
AAACGTACATAATACACACACATGTATACATATAAA [CACACA_site2048] | 6.97
GAAGTTAGTGTTGACTGTACATATATATGTATATAT [XGTACX_site7243] | 6.52
AATCGAAATCGTGCACGGACACATGCAGTAGCCGAG [XGTACX_site6001] | 10.2
